{"source": "the supplement of paper PMC8728848", "binders": {"B1": {"name": "Surfactant Protein D (Human); Neck + Carbohydrate Recognition Domain (NCRD) (Homo sapiens) (protein)", "chain": "MLLFLLSALVLLTQPLGYLEAEMKTYSHRTMPSACTLVMCSSVESGLPGRDRDGREGPRGEKGDPGLPGAAGQAGMPGQAGPVGPKGDNGSVGEPGPKGDTGPSGPPGPPGVPGPAGREGALGKQGNIGPQGKPGPKGEAGPKGEVGAPGMQGSAGARGLAGPKGERGVPGERGVPGNTGAAGSAGAMGPQGSPGARGPPGLKGDKGIPGDKGAKGESGLPDVASLRQQVEALQGQVQHLQAAFSQYKKVELFPNGQSVGEKIFKTAQFVKPFTEAQLLCTQAGGQLASPRSAAENAALQQLVVAKNEAAFLSMTDSKTEGKFTYPTGESLVYSNWAPGEPNDDGGSEDCVEIFTNGKWNDKACGEKRLVVCEF"}}, "experiment_in_all_cases": "glycan array binding signal (z-score within array); higher = stronger binding", "settings_in_all_cases": "glycan notation: IUPAC condensed, linker removed; mutation: R343K", "key": {"[1]": {"target": "GlcNAc(b1-3)[GlcNAc(b1-6)]GalNAc", "method_in_brief": "(§1)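 From the Consortium for Functional Glycomics database, 3228 arrays were curated, keeping only those whose protein sequence was available. Binding is given as a within-array Z-score averaged across arrays sharing a protein sequence and across linkers. Negative Z-scores can be read as non-binding.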"}, "[2]": {"target": "GlcNAc(b1-4)Gal(b1-4)GlcNAc", "method_in_brief": "as §1"}, "GlcNAc(b1-4)GlcNAc": {"target": "GlcNAc(b1-4)GlcNAc", "method_in_brief": "as §1"}, "[3]": {"target": "GlcNAc(b1-4)GlcNAc(b1-4)GlcNAc", "method_in_brief": "as §1"}, "[4]": {"target": "GlcNAc(b1-4)GlcNAc(b1-4)GlcNAc(b1-4)GlcNAc(b1-4)GlcNAc", "method_in_brief": "as §1"}, "[5]": {"target": "GlcNAc(b1-4)GlcNAc(b1-4)GlcNAc(b1-4)GlcNAc(b1-4)GlcNAc(b1-4)GlcNAc", "method_in_brief": "as §1"}, "[6]": {"target": "GlcNAc(b1-4)[GlcNAc(b1-6)]GalNAc", "method_in_brief": "as §1"}, "[7]": {"target": "GlcNAc(b1-6)Gal(b1-4)GlcNAc", "method_in_brief": "as §1"}, "GlcNAc(b1-6)GalNAc": {"target": "GlcNAc(b1-6)GalNAc", "method_in_brief": "as §1"}, "GlcNAc3Prop(b1-4)GlcNAc": {"target": "GlcNAc3Prop(b1-4)GlcNAc", "method_in_brief": "as §1"}, "Kdn(a2-3)Gal(b1-3)GlcNAc": {"target": "Kdn(a2-3)Gal(b1-3)GlcNAc", "method_in_brief": "as §1"}, "Kdn(a2-3)Gal(b1-4)GlcNAc": {"target": "Kdn(a2-3)Gal(b1-4)GlcNAc", "method_in_brief": "as §1"}, "[8]": {"target": "Man(a1-2)Man(a1-2)Man(a1-3)Man", "method_in_brief": "as §1"}, "[9]": {"target": "Man(a1-2)Man(a1-2)Man(a1-6)[Man(a1-3)]Man", "method_in_brief": "as §1"}, "Man(a1-2)Man(a1-3)Man": {"target": "Man(a1-2)Man(a1-3)Man", "method_in_brief": "as §1"}, "[10]": {"target": "Man(a1-2)Man(a1-3)[Man(a1-2)Man(a1-6)]Man", "method_in_brief": "as §1"}, "[11]": {"target": "Man(a1-2)Man(a1-3)[Man(a1-2)Man(a1-6)]Man(a1-6)[Man(a1-2)Man(a1-2)Man(a1-3)]Man", "method_in_brief": "as §1"}, "[12]": {"target": "Man(a1-2)Man(a1-3)[Man(a1-2)Man(a1-6)]Man(a1-6)[Man(a1-2)Man(a1-2)Man(a1-3)]Man(b1-4)GlcNAc(b1-4)GlcNAc", "method_in_brief": "as §1"}, "[13]": {"target": "Man(a1-2)Man(a1-3)[Man(a1-6)]Man(a1-6)[Man(a1-2)Man(a1-3)]Man(b1-4)GlcNAc(b1-4)GlcNAc", "method_in_brief": "as §1"}, "[14]": {"target": "Man(a1-2)Man(a1-6)[Man(a1-3)]Man(a1-6)[Man(a1-2)Man(a1-2)Man(a1-3)]Man", "method_in_brief": "as §1"}, "[15]": {"target": "Man(a1-2)Man(a1-6)[Man(a1-3)]Man(a1-6)[Man(a1-2)Man(a1-2)Man(a1-3)]Man(b1-4)GlcNAc(b1-4)GlcNAc", "method_in_brief": "as §1"}, "Man(a1-3)[Man(a1-6)]Man": {"target": "Man(a1-3)[Man(a1-6)]Man", "method_in_brief": "as §1"}, "[16]": {"target": "Man(a1-3)[Man(a1-6)]Man(a1-6)[Man(a1-2)Man(a1-3)]Man(b1-4)GlcNAc(b1-4)GlcNAc", "method_in_brief": "as §1"}, "[17]": {"target": "Man(a1-3)[Man(a1-6)]Man(a1-6)[Man(a1-3)]Man", "method_in_brief": "as §1"}, "[18]": {"target": "Man(a1-3)[Man(a1-6)]Man(a1-6)[Man(a1-3)]Man(b1-4)GlcNAc(b1-4)GlcNAc", "method_in_brief": "as §1"}, "[19]": {"target": "Man(a1-3)[Man(a1-6)]Man(b1-4)GlcNAc(b1-4)GlcNAc", "method_in_brief": "as §1"}, "Man(a1-6)Man": {"target": "Man(a1-6)Man", "method_in_brief": "as §1"}, "Man(b1-4)GlcNAc": {"target": "Man(b1-4)GlcNAc", "method_in_brief": "as §1"}, "Neu5Ac(a2-3)Gal": {"target": "Neu5Ac(a2-3)Gal", "method_in_brief": "as §1"}, "[20]": {"target": "Neu5Ac(a2-3)Gal(b1-3)GalNAc", "method_in_brief": "as §1"}, "[21]": {"target": "Neu5Ac(a2-3)Gal(b1-3)GalNAc(b1-3)Gal(a1-4)Gal(b1-4)Glc", "method_in_brief": "as §1"}, "[22]": {"target": "Neu5Ac(a2-3)Gal(b1-3)GalNAc(b1-3)Gal(b1-4)GlcNAc", "method_in_brief": "as §1"}, "[23]": {"target": "Neu5Ac(a2-3)Gal(b1-3)GalNAc(b1-4)[Neu5Ac(a2-3)]Gal(b1-4)Glc", "method_in_brief": "as §1"}, "[24]": {"target": "Neu5Ac(a2-3)Gal(b1-3)GalNAc6S", "method_in_brief": "as §1"}, "[25]": {"target": "Neu5Ac(a2-3)Gal(b1-3)GlcNAc", "method_in_brief": "as §1"}, "[26]": {"target": "Neu5Ac(a2-3)Gal(b1-3)GlcNAc(b1-3)Gal(b1-3)GlcNAc", "method_in_brief": "as §1"}, "[27]": {"target": "Neu5Ac(a2-3)Gal(b1-3)GlcNAc6S", "method_in_brief": "as §1"}, "[28]": {"target": "Neu5Ac(a2-3)Gal(b1-3)[Fuc(a1-4)]GlcNAc", "method_in_brief": "as §1"}}, "note": "This is one part of the list."}
{"binder": "B1", "values": [{"measurement": "glycan array binding signal (z-score)", "setting": "[1]", "value": -0.155}, {"measurement": "glycan array binding signal (z-score)", "setting": "[2]", "value": -0.147}, {"measurement": "glycan array binding signal (z-score)", "setting": "GlcNAc(b1-4)GlcNAc", "value": -0.152}, {"measurement": "glycan array binding signal (z-score)", "setting": "[3]", "value": -0.15}, {"measurement": "glycan array binding signal (z-score)", "setting": "[4]", "value": -0.153}, {"measurement": "glycan array binding signal (z-score)", "setting": "[5]", "value": -0.16}, {"measurement": "glycan array binding signal (z-score)", "setting": "[6]", "value": -0.157}, {"measurement": "glycan array binding signal (z-score)", "setting": "[7]", "value": -0.148}, {"measurement": "glycan array binding signal (z-score)", "setting": "GlcNAc(b1-6)GalNAc", "value": -0.155}, {"measurement": "glycan array binding signal (z-score)", "setting": "GlcNAc3Prop(b1-4)GlcNAc", "value": -0.156}, {"measurement": "glycan array binding signal (z-score)", "setting": "Kdn(a2-3)Gal(b1-3)GlcNAc", "value": -0.153}, {"measurement": "glycan array binding signal (z-score)", "setting": "Kdn(a2-3)Gal(b1-4)GlcNAc", "value": -0.15}, {"measurement": "glycan array binding signal (z-score)", "setting": "[8]", "value": -0.091}, {"measurement": "glycan array binding signal (z-score)", "setting": "[9]", "value": -0.133}, {"measurement": "glycan array binding signal (z-score)", "setting": "Man(a1-2)Man(a1-3)Man", "value": 4.08}, {"measurement": "glycan array binding signal (z-score)", "setting": "[10]", "value": 5.42}, {"measurement": "glycan array binding signal (z-score)", "setting": "[11]", "value": 10.9}, {"measurement": "glycan array binding signal (z-score)", "setting": "[12]", "value": 0.077}, {"measurement": "glycan array binding signal (z-score)", "setting": "[13]", "value": 5.1}, {"measurement": "glycan array binding signal (z-score)", "setting": "[14]", "value": 1.64}, {"measurement": "glycan array binding signal (z-score)", "setting": "[15]", "value": 2.4}, {"measurement": "glycan array binding signal (z-score)", "setting": "Man(a1-3)[Man(a1-6)]Man", "value": -0.152}, {"measurement": "glycan array binding signal (z-score)", "setting": "[16]", "value": 7.96}, {"measurement": "glycan array binding signal (z-score)", "setting": "[17]", "value": 5.92}, {"measurement": "glycan array binding signal (z-score)", "setting": "[18]", "value": -0.135}, {"measurement": "glycan array binding signal (z-score)", "setting": "[19]", "value": -0.156}, {"measurement": "glycan array binding signal (z-score)", "setting": "Man(a1-6)Man", "value": -0.146}, {"measurement": "glycan array binding signal (z-score)", "setting": "Man(b1-4)GlcNAc", "value": -0.154}, {"measurement": "glycan array binding signal (z-score)", "setting": "Neu5Ac(a2-3)Gal", "value": -0.156}, {"measurement": "glycan array binding signal (z-score)", "setting": "[20]", "value": -0.153}, {"measurement": "glycan array binding signal (z-score)", "setting": "[21]", "value": -0.155}, {"measurement": "glycan array binding signal (z-score)", "setting": "[22]", "value": -0.158}, {"measurement": "glycan array binding signal (z-score)", "setting": "[23]", "value": -0.151}, {"measurement": "glycan array binding signal (z-score)", "setting": "[24]", "value": -0.156}, {"measurement": "glycan array binding signal (z-score)", "setting": "[25]", "value": -0.142}, {"measurement": "glycan array binding signal (z-score)", "setting": "[26]", "value": -0.15}, {"measurement": "glycan array binding signal (z-score)", "setting": "[27]", "value": -0.153}, {"measurement": "glycan array binding signal (z-score)", "setting": "[28]", "value": -0.153}]}
